Inhibition data for 4 compounds are collected here from ChEMBL document CHEMBL1961873, “Compounds: GSK PKIS; Assays: Nanosyn kinase panel” (2012).

Usually inhibition stands for the relative decrease from the control value, in per cent.

Molecules are shown by their SMILES. For part of these data: Shown are results outside the selection of strong results, which stands elsewhere. Only a part is listed here, and it is no random draw.

For test [1], the target named is 5'-AMP-activated protein kinase catalytic subunit alpha-2 (Homo sapiens) (UniProt P54646). Particulars: at 1 µM.
Chain of UniProt P54646 (P54646 whole entry, looked up): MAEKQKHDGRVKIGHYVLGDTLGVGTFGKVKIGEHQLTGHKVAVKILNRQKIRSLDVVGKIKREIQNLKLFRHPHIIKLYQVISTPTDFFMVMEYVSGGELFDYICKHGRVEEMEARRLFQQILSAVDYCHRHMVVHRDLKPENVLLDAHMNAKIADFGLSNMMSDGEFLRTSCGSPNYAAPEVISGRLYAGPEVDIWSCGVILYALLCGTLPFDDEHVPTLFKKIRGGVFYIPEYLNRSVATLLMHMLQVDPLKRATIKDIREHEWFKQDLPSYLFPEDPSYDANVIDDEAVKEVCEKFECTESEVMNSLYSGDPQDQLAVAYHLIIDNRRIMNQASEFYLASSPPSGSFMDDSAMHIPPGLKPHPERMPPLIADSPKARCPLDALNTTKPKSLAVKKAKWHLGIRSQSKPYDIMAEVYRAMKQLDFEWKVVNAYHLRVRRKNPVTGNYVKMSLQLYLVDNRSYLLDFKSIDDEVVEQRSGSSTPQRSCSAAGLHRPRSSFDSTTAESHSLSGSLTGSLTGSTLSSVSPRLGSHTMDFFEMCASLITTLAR
Test [2] deals with T1, NUAK family SNF1-like kinase 1 (Homo sapiens) (UniProt O60285).
T1 sequence (whole entry): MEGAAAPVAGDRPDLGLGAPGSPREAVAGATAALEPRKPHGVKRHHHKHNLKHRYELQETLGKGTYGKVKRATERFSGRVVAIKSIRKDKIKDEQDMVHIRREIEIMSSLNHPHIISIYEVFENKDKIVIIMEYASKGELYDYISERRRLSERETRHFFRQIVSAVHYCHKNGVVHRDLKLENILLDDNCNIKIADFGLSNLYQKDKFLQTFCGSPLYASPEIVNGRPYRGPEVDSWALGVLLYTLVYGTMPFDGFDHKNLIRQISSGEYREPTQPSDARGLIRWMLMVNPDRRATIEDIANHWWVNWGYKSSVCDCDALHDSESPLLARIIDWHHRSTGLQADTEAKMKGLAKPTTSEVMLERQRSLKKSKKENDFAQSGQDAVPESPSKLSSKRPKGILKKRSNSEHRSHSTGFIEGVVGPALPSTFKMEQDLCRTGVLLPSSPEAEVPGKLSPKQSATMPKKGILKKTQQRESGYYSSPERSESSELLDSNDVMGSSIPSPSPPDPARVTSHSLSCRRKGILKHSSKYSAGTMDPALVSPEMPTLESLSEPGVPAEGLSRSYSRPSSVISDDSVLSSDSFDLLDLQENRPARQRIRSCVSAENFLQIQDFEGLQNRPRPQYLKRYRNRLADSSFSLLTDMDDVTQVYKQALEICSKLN
Particulars: at 0.1 µM.

In test [3] the target is T1, NUAK family SNF1-like kinase 1 (Homo sapiens). Particulars: at 1 µM.
Test [4] has as its target T2, Serine/threonine-protein kinase BRSK1 (Homo sapiens) (UniProt Q8TDC3).
T2 sequence (whole entry): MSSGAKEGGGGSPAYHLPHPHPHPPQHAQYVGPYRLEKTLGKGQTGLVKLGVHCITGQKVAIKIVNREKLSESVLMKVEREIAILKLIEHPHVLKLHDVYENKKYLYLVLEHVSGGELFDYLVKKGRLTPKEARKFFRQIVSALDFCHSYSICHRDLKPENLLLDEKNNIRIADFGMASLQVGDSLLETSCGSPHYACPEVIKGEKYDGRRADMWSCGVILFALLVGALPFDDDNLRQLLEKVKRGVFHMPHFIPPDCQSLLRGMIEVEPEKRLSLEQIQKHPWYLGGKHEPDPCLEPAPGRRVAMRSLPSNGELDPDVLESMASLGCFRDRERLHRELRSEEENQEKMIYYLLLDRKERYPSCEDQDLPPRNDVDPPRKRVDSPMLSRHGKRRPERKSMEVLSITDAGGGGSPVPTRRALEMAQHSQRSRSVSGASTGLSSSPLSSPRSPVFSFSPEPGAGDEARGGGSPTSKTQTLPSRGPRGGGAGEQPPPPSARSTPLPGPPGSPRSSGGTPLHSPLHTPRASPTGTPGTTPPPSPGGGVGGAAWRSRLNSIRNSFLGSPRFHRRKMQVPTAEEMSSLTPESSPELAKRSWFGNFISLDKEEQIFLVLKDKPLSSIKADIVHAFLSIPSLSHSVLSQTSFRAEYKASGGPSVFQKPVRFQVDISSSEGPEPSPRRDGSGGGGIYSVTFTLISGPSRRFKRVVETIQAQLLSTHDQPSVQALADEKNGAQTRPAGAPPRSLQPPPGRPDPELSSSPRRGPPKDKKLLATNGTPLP
Conditions: at 0.1 µM.

The target of test [5] is T2, Serine/threonine-protein kinase BRSK1 (Homo sapiens). Particulars: at 1 µM.
The target of test [6] is T3, Serine/threonine-protein kinase BRSK2 (Homo sapiens) (UniProt Q8IWQ3).
T3 sequence (whole entry): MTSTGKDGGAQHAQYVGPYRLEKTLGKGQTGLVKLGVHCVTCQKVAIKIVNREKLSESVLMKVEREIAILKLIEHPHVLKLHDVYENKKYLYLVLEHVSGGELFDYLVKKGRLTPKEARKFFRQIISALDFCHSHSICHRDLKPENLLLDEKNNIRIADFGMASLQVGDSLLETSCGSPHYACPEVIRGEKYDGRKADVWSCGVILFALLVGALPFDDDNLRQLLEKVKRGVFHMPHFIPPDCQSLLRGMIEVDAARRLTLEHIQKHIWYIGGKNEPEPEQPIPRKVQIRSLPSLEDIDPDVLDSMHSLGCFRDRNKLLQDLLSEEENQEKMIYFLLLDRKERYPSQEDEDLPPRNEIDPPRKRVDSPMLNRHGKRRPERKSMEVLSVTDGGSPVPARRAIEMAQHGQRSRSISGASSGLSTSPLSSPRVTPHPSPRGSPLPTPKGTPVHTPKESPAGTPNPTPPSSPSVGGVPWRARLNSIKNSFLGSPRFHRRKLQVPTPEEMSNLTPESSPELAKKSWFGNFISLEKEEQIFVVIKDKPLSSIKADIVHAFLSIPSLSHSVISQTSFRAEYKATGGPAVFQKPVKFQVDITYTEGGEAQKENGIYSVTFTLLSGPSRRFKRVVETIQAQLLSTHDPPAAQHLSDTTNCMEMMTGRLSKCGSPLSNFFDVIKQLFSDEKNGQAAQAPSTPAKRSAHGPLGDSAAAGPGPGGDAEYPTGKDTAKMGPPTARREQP
Conditions: at 0.1 µM.

For test [7], the target named is T3, Serine/threonine-protein kinase BRSK2 (Homo sapiens). Conditions: at 1 µM.
Test [8] has as its target Calcium/calmodulin-dependent protein kinase type 1D (Homo sapiens) (UniProt Q8IU85). Particulars: at 0.1 µM.
Chain of UniProt Q8IU85 (Q8IU85 whole entry, looked up): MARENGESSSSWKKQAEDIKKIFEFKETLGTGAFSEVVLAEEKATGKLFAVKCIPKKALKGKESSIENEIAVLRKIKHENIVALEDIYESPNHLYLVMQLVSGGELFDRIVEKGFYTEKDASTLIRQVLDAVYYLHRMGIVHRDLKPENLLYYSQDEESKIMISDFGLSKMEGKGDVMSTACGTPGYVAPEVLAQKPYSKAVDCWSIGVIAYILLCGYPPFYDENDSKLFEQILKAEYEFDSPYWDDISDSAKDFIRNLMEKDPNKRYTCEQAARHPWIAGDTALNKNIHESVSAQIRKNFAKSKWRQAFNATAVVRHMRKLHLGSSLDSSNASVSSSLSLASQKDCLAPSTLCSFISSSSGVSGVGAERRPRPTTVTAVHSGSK
For test [9] the target is unchanged. Particulars: at 1 µM.
Test [10] has as its target Calcium/calmodulin-dependent protein kinase type II subunit alpha (Homo sapiens) (UniProt Q9UQM7). Conditions: at 0.1 µM.
Chain of UniProt Q9UQM7 (Q9UQM7 whole entry): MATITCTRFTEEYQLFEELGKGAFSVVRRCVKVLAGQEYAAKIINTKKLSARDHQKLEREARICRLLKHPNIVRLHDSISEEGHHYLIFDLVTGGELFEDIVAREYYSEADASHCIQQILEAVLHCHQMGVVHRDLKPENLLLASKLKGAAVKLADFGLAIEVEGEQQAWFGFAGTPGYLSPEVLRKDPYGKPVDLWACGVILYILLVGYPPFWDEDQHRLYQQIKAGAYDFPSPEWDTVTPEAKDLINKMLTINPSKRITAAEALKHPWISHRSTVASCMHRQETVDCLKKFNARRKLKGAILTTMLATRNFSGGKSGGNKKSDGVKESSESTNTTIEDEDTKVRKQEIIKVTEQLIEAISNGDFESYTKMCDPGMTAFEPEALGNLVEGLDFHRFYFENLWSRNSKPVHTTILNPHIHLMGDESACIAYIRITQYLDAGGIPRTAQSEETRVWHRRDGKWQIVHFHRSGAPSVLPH
Test [11] shares this target. Particulars: at 1 µM.
The target of test [12] is Calcium/calmodulin-dependent protein kinase type II subunit delta (Homo sapiens) (UniProt Q13557). Conditions: at 0.1 µM.
Chain of UniProt Q13557 (Q13557 whole entry): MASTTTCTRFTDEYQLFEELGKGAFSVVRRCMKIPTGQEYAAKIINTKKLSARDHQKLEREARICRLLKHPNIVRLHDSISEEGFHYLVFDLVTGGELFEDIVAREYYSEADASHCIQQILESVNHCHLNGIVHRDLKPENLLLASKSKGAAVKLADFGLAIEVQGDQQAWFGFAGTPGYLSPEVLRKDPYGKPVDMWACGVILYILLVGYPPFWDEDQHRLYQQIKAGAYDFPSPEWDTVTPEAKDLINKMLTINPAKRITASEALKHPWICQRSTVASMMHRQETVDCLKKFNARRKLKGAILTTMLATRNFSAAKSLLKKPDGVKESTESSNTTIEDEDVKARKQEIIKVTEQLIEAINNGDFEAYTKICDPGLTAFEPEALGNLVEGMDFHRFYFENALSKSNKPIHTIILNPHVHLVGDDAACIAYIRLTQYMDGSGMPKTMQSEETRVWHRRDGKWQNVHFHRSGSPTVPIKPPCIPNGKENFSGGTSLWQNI
The target is the same in test [13]. Particulars: at 1 µM.
The target in test [14] is T4, Calcium/calmodulin-dependent protein kinase type IV (Homo sapiens) (UniProt Q16566).
T4 sequence (whole entry): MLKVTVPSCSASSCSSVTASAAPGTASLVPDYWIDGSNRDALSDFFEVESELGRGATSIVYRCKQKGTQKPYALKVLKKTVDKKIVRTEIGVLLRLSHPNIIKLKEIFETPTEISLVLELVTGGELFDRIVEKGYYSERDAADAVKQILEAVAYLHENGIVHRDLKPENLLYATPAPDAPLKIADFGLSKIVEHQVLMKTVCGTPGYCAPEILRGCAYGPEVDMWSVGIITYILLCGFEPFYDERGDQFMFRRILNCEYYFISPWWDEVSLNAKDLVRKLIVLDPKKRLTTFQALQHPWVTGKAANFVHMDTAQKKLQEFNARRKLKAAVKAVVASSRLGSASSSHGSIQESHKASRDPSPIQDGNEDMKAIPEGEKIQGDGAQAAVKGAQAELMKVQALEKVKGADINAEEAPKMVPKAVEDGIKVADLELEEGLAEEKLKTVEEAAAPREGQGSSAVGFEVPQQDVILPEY
Particulars: at 0.1 µM.

Test [15] addresses T4, Calcium/calmodulin-dependent protein kinase type IV (Homo sapiens). Particulars: at 1 µM.
In test [16] the target is T5, Serine/threonine-protein kinase Chk1 (Homo sapiens) (UniProt O14757).
T5 sequence (whole entry): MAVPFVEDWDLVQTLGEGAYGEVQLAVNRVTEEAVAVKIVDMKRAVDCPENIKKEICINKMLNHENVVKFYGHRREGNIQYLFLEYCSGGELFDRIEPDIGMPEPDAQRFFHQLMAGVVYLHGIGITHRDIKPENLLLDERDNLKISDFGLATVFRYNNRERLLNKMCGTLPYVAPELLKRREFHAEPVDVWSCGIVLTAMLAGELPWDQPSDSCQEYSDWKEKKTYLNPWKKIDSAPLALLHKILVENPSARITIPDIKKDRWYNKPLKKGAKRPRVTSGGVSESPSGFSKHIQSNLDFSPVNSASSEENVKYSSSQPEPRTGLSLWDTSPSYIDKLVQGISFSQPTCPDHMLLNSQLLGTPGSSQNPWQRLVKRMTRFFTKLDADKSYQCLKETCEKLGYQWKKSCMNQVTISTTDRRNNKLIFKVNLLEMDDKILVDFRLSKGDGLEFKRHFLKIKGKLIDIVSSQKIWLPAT
Conditions: at 0.1 µM.

In test [17] the target is T5, Serine/threonine-protein kinase Chk1 (Homo sapiens). Conditions: at 1 µM.
For test [18], the target named is Serine/threonine-protein kinase Chk2 (Homo sapiens) (UniProt O96017). Conditions: at 0.1 µM.
Chain of UniProt O96017 (O96017 whole entry): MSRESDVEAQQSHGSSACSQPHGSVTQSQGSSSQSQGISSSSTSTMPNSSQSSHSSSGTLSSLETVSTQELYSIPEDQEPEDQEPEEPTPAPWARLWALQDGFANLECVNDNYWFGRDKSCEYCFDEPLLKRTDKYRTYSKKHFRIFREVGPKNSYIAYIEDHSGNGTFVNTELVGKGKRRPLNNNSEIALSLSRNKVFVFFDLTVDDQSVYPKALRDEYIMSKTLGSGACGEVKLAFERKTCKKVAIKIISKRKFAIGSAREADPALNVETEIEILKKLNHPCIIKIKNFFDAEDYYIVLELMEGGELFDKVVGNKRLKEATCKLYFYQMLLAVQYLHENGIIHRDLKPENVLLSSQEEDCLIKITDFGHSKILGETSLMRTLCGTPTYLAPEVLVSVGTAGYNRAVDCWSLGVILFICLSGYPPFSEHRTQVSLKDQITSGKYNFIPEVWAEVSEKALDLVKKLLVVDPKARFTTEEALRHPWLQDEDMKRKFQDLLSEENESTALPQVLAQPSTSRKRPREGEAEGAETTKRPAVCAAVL
For test [19] the target is unchanged. Conditions: at 1 µM.
The target of test [20] is Death-associated protein kinase 1 (Homo sapiens) (UniProt P53355). Conditions: at 0.1 µM.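 Further: reported figure is the mean inhibition of DAPK1.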
Chain of UniProt P53355 (P53355 whole entry, looked up): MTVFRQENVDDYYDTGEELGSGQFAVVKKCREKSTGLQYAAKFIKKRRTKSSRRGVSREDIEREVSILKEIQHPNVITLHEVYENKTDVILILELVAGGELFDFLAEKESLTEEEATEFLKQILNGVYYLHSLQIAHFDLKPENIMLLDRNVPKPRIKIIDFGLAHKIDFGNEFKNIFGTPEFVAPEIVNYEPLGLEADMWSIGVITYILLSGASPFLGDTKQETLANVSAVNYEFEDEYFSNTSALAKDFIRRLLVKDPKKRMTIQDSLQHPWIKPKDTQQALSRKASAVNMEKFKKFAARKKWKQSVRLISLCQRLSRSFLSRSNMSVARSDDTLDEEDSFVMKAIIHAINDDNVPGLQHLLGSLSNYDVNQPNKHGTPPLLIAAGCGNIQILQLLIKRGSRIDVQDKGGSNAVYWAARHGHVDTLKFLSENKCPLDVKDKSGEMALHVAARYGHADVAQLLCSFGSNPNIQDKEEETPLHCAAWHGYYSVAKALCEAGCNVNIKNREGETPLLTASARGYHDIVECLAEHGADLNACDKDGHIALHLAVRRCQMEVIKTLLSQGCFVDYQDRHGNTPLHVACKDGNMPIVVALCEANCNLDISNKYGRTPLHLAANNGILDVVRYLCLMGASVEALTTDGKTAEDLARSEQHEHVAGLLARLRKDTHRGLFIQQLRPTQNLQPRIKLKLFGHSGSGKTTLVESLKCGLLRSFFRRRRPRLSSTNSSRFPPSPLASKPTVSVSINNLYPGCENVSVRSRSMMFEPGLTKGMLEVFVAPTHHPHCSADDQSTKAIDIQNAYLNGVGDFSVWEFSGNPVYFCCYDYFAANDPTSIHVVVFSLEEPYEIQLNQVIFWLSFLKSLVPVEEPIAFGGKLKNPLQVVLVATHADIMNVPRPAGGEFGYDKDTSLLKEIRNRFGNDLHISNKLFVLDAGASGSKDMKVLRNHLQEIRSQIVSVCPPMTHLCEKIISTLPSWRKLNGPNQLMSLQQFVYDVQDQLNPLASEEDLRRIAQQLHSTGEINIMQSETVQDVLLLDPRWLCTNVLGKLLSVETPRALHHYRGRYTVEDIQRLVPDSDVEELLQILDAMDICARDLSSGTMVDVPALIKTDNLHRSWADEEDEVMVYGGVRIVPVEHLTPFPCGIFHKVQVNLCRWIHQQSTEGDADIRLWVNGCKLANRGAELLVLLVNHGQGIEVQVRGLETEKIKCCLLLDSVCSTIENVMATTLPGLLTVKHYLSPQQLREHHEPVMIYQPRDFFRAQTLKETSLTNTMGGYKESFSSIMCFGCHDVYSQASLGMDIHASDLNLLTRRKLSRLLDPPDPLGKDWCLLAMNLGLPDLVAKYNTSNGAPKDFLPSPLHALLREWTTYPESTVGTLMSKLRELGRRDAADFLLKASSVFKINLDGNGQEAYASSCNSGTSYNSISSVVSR

`O=C1NC(=O)C(c2ccccc2)=C1Nc1ccccc1`: the inhibition in test [1] worked out at 5.48%; in test [2] it was 4.37%; in test [3], 18.5%; in test [4] it was 3.32%; in test [5], 9.22%; in [6], 6.92%. The inhibition was found to be 11.5% in test [7]; 0.62% in [8]; 3% in [9]; 3.13% in [10]; 4.51% in [11]; 3.71% in test [12]. For the same compound, the inhibition in test [13] is 7.42%; in test [14] it was -1.37%; in test [15] it was -0.46%; in test [16], -2.05%; in test [17], -1.75%; in test [18], -1.56%. Moreover, the inhibition in test [19] was 1.67%; in test [20] it was -2.51%.

`Fc1ccc(-c2ncn(C3CCNCC3)c2-c2ccnc(Oc3ccc(Cl)cc3)n2)cc1`: the inhibition was 0.55% in test [1]; 1.46% in [2]; -0.41% in test [3]; 0.17% in test [4]; -0.05% in [5]; 1.2% in [6]. In addition, the inhibition in test [7] was 1.96%; in test [8] it was -0.56%; in [9], 0.97%; in [10], -2.22%; in test [11], -1.84%; in [12] it was -0.64%. Besides, the inhibition is 1.18% in test [13]; -0.44% in test [14]; 0.11% in [15]; -7.06% in [17]; -5.72% in test [18]; -6.53% in [19]. Further, the inhibition in [20] was -8.78%.

For the compound `COc1ccccc1C1=C(Nc2ccccc2)C(=O)NC1=O`, the inhibition in test [1] was 5.49%; in [2] it was -0.07%; in test [3], 7.2%; in test [4], 0.04%; in [5], 7.08%; in test [6], 3.57%. The inhibition turned out to be 12% in test [7]; 0.72% in [8]; 1.96% in test [9]; 2.73% in [10]; 5.89% in [11]; 4.14% in test [12]. Further, the inhibition is 14.9% in test [13]; 0.13% in [14]; -0.64% in test [15]; -2.01% in test [16]; -2.38% in test [17]; -3.31% in [18]. Moreover, the values for the inhibition in [19] and in test [20] were -1.64% and -4.35%, respectively.

`Fc1ccc(-c2ncn(C3CCNCC3)c2-c2ccnc(Oc3cccc(F)c3)n2)cc1`: the inhibition in test [1] is 4.17%; in test [2], -0.94%; in [3], 4.68%; in test [4], 2.01%; in test [5], 0.74%; in test [6], 1.57%. The inhibition in test [7] is 4.54%; in [8], -0.3%; in [9], 2%; in [10], 1.38%; in test [11], 3%; in test [12], 3.18%. Also, the inhibition in test [14] was 0%; in [15] it was 1.26%; in test [16], -4.43%; in [17] it was -0.91%; in test [18], -2.09%; in test [19] it was -2.46%. For the same compound, in test [20], the inhibition is -3.14%.
